In the supplement of paper PMC12217912:
The list shows a part of the results. Sequences were assembled here from the parent chain. Values near 0.05 are background.

B1: TEV protease; numbered along this chain (parent)
chain: MGESLFKGPRDYNPISSSICHLTNESDGHTTSLYGIGFGPFIITNKHLFRRNNGTLVVQSLHGVFKVKDTTTLQQHLVDGRDMIIIRMPKDFPPFPQKLKFREPQREERICLVTTNFQTKSMSSMVSDTSCTFPSGDGIFWKHWIQTKDGQCGSPLVSTRDGFIVGIHSASNFTNTNNYFTSVPKNFMELLTNQEAQQWVSGWRLNADSVLWGGHKVFMVKPEEPFQPVKEATQL

Variants of: B1
Assay: raw area under fraction-flipped curve 0-4 h after induction (AUC4h, not background-subtracted), DNA-recorder readout of cleavage of the substrate (dimensionless); higher = more cleavage of the substrate by the protease variant
Conditions: temperature: 34 °C; time window: 0-4 h after rhamnose induction
Protocol: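 In vivo DNA recorder in E. coli TOP10(DE3) ΔrhaA at 34 °C. Each TEVp single-site mutant (parent TEVp 0) is paired with a single-site variant of the 7-mer TEVs (canonical ENLYFQ|S). The substrate sits between flexible linkers in a Bxb1-sfGFP-TEVs-SsrA fusion, so cleavage stabilises Bxb1 and speeds flipping of a recombination array, read by NGS. The value is the raw area under the fraction-flipped curve over 0-4 h after rhamnose induction (AUC4h), with ≥20 reads per time point. It is not background-subtracted; inactive controls average about 0.047.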
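Also: Bxb1 expression induced with 0.2% (w/v) L-rhamnose at OD600 near 0.5, cultures sampled hourly, flipped fraction per protease–substrate barcode pair counted by paired-end Illumina sequencing.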

Variant | area with substrate ENLYDQS | area with substrate ENLYEQS | area with substrate ENLYGQS | area with substrate ENLYIQS | area with substrate ENLYLQS | area with substrate ENLYNQS | area with substrate ENLYPQS | area with substrate ENLYRQS | area with substrate ENLYVQS | area with substrate ENLYHQS | area with substrate ENLYKQS | area with substrate ENLYMQS | area with substrate ENLYQQS | area with substrate ENLYWQS | area with substrate ENLYSQS | area with substrate ENLYTQS | area with substrate ENLYYQS
S124P | 0.055 | 0.0566 | 0.0741 | 0.105 | 0.0705 | 0.0772 | 0.042 | 0.0552 | 0.124 | – | – | – | – | – | – | – | –
S127K | 0.0594 | 0.0561 | 0.0715 | 0.159 | – | 0.0626 | 0.0928 | – | 0.102 | 0.0512 | 0.0569 | 0.0923 | 0.0589 | 0.062 | – | – | –
T132I | 0.0656 | 0.0653 | 0.0523 | 0.137 | – | 0.0585 | 0.0666 | 0.0609 | – | 0.0686 | 0.126 | 0.0818 | 0.0609 | – | 0.0638 | 0.0747 | –
F133W | 0.0666 | 0.0616 | 0.0747 | 0.108 | – | 0.064 | 0.0542 | 0.048 | 0.0922 | 0.0748 | 0.0628 | 0.08 | 0.0667 | 0.084 | 0.0807 | 0.0726 | 0.056
F140G | 0.0561 | 0.0576 | 0.0648 | – | 0.0646 | 0.0577 | 0.0651 | – | 0.0648 | 0.0614 | 0.0475 | – | – | 0.0521 | 0.0661 | – | –
W141A | 0.0553 | 0.0648 | – | – | – | 0.0456 | 0.0481 | – | 0.0548 | 0.0583 | – | 0.0445 | – | 0.06 | 0.0618 | 0.0408 | 0.0524
W141P | 0.0745 | 0.049 | 0.0512 | 0.0385 | – | 0.0589 | 0.0405 | 0.0471 | – | 0.112 | 0.0645 | 0.0544 | 0.0553 | 0.0577 | 0.0448 | 0.052 | 0.0612
I145K | 0.0562 | 0.0588 | 0.0691 | 0.0532 | – | 0.0514 | 0.0628 | – | 0.0615 | 0.0555 | 0.0537 | 0.0565 | 0.051 | – | 0.0476 | – | 0.0457
Q146K | 0.0585 | 0.0685 | 0.0557 | – | 0.0857 | 0.0678 | 0.0739 | 0.0571 | 0.118 | 0.061 | 0.0628 | 0.0821 | 0.0473 | 0.0794 | 0.0422 | – | –
S158G | 0.0421 | 0.0654 | 0.078 | 0.131 | 0.1 | 0.0668 | 0.0086 | 0.0846 | 0.093 | 0.0696 | 0.0604 | 0.102 | 0.0589 | – | 0.0866 | 0.0848 | 0.0663
G162P | 0.0644 | 0.0528 | 0.0668 | – | – | 0.0623 | 0.0461 | 0.0543 | 0.0699 | 0.0593 | 0.071 | 0.064 | 0.0544 | – | 0.0881 | – | –
V165T | 0.0537 | 0.0544 | 0.0045 | 0.0748 | – | – | 0.0647 | – | 0.107 | 0.0564 | 0.0288 | 0.0743 | – | 0.0622 | 0.0529 | – | –
G166M | 0.0584 | 0.0634 | – | 0.0151 | – | 0.0288 | 0.0428 | – | 0.0576 | 0.0438 | 0.0363 | – | 0.0191 | 0.0522 | 0.0433 | – | 0.0488
I167A | 0.0478 | 0.0659 | 0.0582 | – | – | 0.0571 | – | – | – | 0.0547 | – | – | – | 0.0632 | – | 0.0654 | 0.0634
S171F | 0.0832 | 0.0455 | – | 0.0742 | – | 0.0639 | 0.0608 | – | 0.0524 | 0.0565 | 0.0549 | 0.0595 | 0.0648 | 0.0399 | 0.0642 | 0.0586 | –
F180N | 0.0575 | 0.0613 | 0.0579 | 0.0587 | – | 0.0567 | 0.0486 | 0.0708 | – | 0.0547 | 0.0483 | 0.0449 | – | 0.0446 | – | – | –
T192M | 0.0673 | 0.0659 | 0.0681 | 0.11 | – | 0.0725 | 0.0753 | 0.0446 | 0.0821 | 0.0702 | 0.0791 | 0.0853 | 0.0573 | 0.0976 | 0.0652 | 0.0873 | 0.0854
S201R | 0.066 | 0.0788 | 0.072 | 0.109 | – | 0.0579 | – | 0.0801 | 0.0988 | 0.0833 | 0.0546 | 0.107 | 0.0687 | – | 0.0762 | – | 0.0588
W203N | 0.0442 | – | 0.0693 | – | 0.0575 | 0.0562 | – | 0.0595 | 0.0638 | 0.0606 | 0.0613 | 0.0569 | – | 0.0668 | – | 0.0405 | –

Variant | area with substrate ENLYDQS | area with substrate ENLYEQS | area with substrate ENLYGQS | area with substrate ENLYIQS | area with substrate ENLYLQS | area with substrate ENLYNQS | area with substrate ENLYPQS | area with substrate ENLYRQS | area with substrate ENLYVQS | area with substrate ENLYHQS | area with substrate ENLYKQS | area with substrate ENLYMQS | area with substrate ENLYQQS | area with substrate ENLYWQS | area with substrate ENLYSQS | area with substrate ENLYTQS | area with substrate ENLYYQS
L205G | 0.0645 | 0.0636 | 0.0571 | 0.0677 | 0.0665 | 0.0614 | 0.0705 | 0.0706 | 0.0631 | 0.0597 | 0.0284 | – | 0.0639 | – | 0.068 | 0.0479 | 0.0779
L211Q | 0.0655 | 0.0794 | 0.0275 | – | 0.0906 | 0.0746 | 0.0809 | – | – | 0.0727 | – | 0.0979 | 0.0599 | 0.112 | 0.0736 | 0.0689 | –
V229F | 0.0558 | 0.0707 | 0.0803 | 0.0844 | – | 0.0683 | 0.0672 | – | 0.105 | 0.07 | 0.0892 | 0.0876 | 0.0697 | 0.113 | 0.0764 | – | 0.0688
K230D | 0.0542 | – | 0.0595 | 0.115 | – | 0.0671 | 0.0742 | 0.0646 | 0.125 | 0.0685 | 0.0791 | – | – | 0.117 | – | 0.0871 | 0.0771
K230N | 0.0813 | 0.0489 | 0.0623 | 0.16 | – | 0.0797 | 0.0698 | 0.0567 | 0.133 | 0.0608 | 0.0791 | 0.0641 | – | – | 0.0859 | – | –
S18A | – | 0.0564 | – | – | 0.0724 | – | 0.0697 | – | 0.117 | 0.0542 | – | 0.093 | 0.0327 | 0.0784 | 0.0579 | 0.0928 | 0.07
S26L | – | 0.0591 | 0.0488 | 0.0803 | – | 0.0585 | 0.0256 | – | 0.054 | 0.0602 | 0.0624 | – | – | – | 0.0579 | 0.059 | 0.06
G37W | – | 0.05 | 0.0608 | – | 0.0561 | 0.0597 | 0.063 | 0.0714 | 0.0665 | 0.0511 | 0.0199 | 0.0595 | – | 0.0204 | 0.0687 | 0.07 | –
K46T | – | 0.0584 | 0.0519 | 0.0748 | – | 0.0572 | 0.0675 | 0.0535 | 0.109 | 0.0611 | 0.062 | 0.0754 | – | 0.0618 | 0.0542 | 0.0552 | –
T70I | – | 0.0619 | 0.0693 | – | 0.0832 | 0.0708 | 0.0561 | 0.0576 | 0.078 | 0.0588 | 0.0737 | 0.0578 | 0.0557 | 0.0731 | – | – | –
I84G | – | 0.0513 | 0.0399 | 0.0653 | 0.0563 | 0.0485 | 0.0683 | 0.0408 | – | 0.0524 | 0.0428 | 0.061 | – | – | 0.0764 | – | –
R109Q | – | 0.0723 | 0.0236 | 0.117 | – | 0.0724 | 0.0587 | 0.055 | – | 0.0694 | – | 0.0731 | 0.0265 | 0.0951 | – | 0.0849 | 0.0627
F187M | – | 0.0639 | 0.0656 | 0.0894 | – | 0.0711 | 0.0653 | 0.0464 | 0.129 | 0.0629 | 0.0593 | 0.0819 | 0.0643 | 0.076 | – | 0.0829 | 0.0742
M188P | – | 0.0668 | 0.0343 | – | – | – | 0.0476 | – | 0.111 | 0.091 | 0.0566 | – | – | 0.0796 | – | 0.0733 | –
Q194F | – | 0.0801 | 0.0613 | 0.0917 | – | 0.0655 | – | 0.0306 | 0.111 | 0.0616 | 0.051 | – | 0.0586 | 0.066 | 0.0697 | – | 0.0639
E223I | – | 0.0704 | 0.0629 | 0.105 | – | 0.07 | 0.067 | – | 0.0808 | 0.0645 | 0.0542 | 0.0533 | – | 0.0783 | – | – | 0.0682
Q227V | – | 0.0639 | – | – | – | 0.0742 | 0.0805 | 0.0497 | 0.157 | 0.0684 | – | 0.0719 | 0.0637 | 0.0674 | – | – | 0.0703
Q234N | – | 0.0693 | 0.0858 | 0.101 | 0.0969 | 0.0625 | 0.0688 | 0.0518 | – | 0.0581 | – | – | 0.0578 | 0.0929 | 0.11 | 0.0734 | 0.0977
E107Y | – | – | 0.0502 | 0.116 | 0.112 | 0.0679 | 0.0728 | 0.0633 | 0.108 | 0.0794 | 0.0139 | – | – | 0.0795 | – | 0.0646 | –
